Experimental data from patent US12491259B2, “Anti-variable MUC1* antibodies and uses thereof” (Minerva Biotechnologies Corporation, priority 2022, dated 2025).

B1: 20A10-OKT3-BiTE: knob-in-hole bispecific: humanized anti-MUC1* antibody 20A10 arm and anti-CD3 antibody OKT3 arm (protein)
chain 1: QVQLVESGGGLVKPGGSLRLSCAASGFTFSTYAMSWIRQAPGKGLEWVASIGRAGSTYYSDSVKGRFTISRDNAKNSLYLQMNSLRAEDTAVYYCARGPIYNDYDEFAYWGQGTLVTVSSGGGGSGGGGSGGGGSEIVLTQSPATLSLSPGERATLSCKSSQSVLYSSNQKNYLAWYQQKPGQAPRLLIYWASTRESGIPARFSGSGSGTDFTLTISSLEPEDFAVYYCHQYLSSLTFGGGTKVEIKR[no letters for human IgG1 Fc with changes]
chain 2: QVQLVQSGGGVVQPGRSLRLSCKASGYTFTRYTMHWVRQAPGKGLEWIGYINPSRGYTNYNQKVKDRFTISTDKSKSTAFLQMDSLRPEDTAVYYCARYYDDHYCLDYWGQGTTLTVSSGGGGSGGGGSGGGGSDIQMTQSPSSLSASVGDRVTITCSASSSVSYMNWYQQTPGKAPKRWIYDTSKLASGVPSRFSGSGSGTDYTFTISSLQPEDIATYYCQQWSSNPFTFGQGTKLQITR[no letters for human IgG1 Fc with changes]TGWSHPQFEK
modifications: left off: small tags and cut ends
notes: knob-in-hole bispecific: humanized anti-MUC1* antibody 20A10 arm and anti-CD3 antibody OKT3 arm
B2: 20A10-12F6-BiTE: knob-in-hole bispecific: humanized anti-MUC1* antibody 20A10 arm and anti-CD3 antibody 12F6 arm (protein)
chain 1: QVQLVESGGGLVKPGGSLRLSCAASGFTFSTYAMSWIRQAPGKGLEWVASIGRAGSTYYSDSVKGRFTISRDNAKNSLYLQMNSLRAEDTAVYYCARGPIYNDYDEFAYWGQGTLVTVSSGGGGSGGGGSGGGGSEIVLTQSPATLSLSPGERATLSCKSSQSVLYSSNQKNYLAWYQQKPGQAPRLLIYWASTRESGIPARFSGSGSGTDFTLTISSLEPEDFAVYYCHQYLSSLTFGGGTKVEIKR[no letters for human IgG1 Fc with changes]
chain 2: QVQLVQSGGGVVQPGRSLRLSCKASGYTFTSYTMHWVRQAPGKGLEWIGYINPSSGYTKYNQKFKDRFTISADKSKSTAFLQMDSLRPEDTGVYFCARWQDYDVYFDYWGQGTPVTVSSGGGGSGGGGSGGGGSDIQMTQSPSSLSASVGDRVTMTCRASSSVSYMHWYQQTPGKAPKPWIYATSNLASGVPSRFSGSGSGTDYTLTISSLQPEDIATYYCQQWSSNPPTFGQGTKLQITR[no letters for human IgG1 Fc with changes]TGWSHPQFEK
modifications: left off: small tags and cut ends
notes: knob-in-hole bispecific: humanized anti-MUC1* antibody 20A10 arm and anti-CD3 antibody 12F6 arm

How the values were obtained:
Format in all cases: cell-based
[1] = tested on: TNF-alpha secretion from the T cells; test: ELISA of TNF-alpha secreted by T cells into conditioned media; conditions: T47D + human T cells
Text: (§1) As an example of how antibodies of the invention can be incorporated into bispecific antibodies, a bispecific antibody using a knob-in-hole, also known as KIH (Spiess et al. Molecular Immunology 67, 95-106 (2015)), format was constructed. In this example, a first arm of the antibody is the humanized anti-MUC1* antibody 20A10, also known as hu20A10, with a 14616 human framework region; the second arm of the antibody is either the anti-CD3 antibody OKT3 or 12F6, which both bind to the same epitope on human T cells. […] In addition, cancer cell killing was quantified. Measurement of the cytotoxicity of the anti-MUC1* targeting bispecific antibody in which 20A10 binds to the extra cellular domain of MUC1* on the tumor cell surface and an anti-CD3 antibody called OKT3 was measured using an LDH cytotoxicity assay. […] In addition to analyzing the target cancer cells, the T cells were also analyzed. […] Secretion of IFN-g from the T cells into the conditioned media was measured in an ELISA assay (FIG. 1O). […]
(§2) In yet another example, an anti-MUC1*/anti-CD3 bispecific antibody is constructed using 20A10 for binding to the extra cellular domain of MUC1* positive cancer cells and an anti-CD3 antibody 12F6 to bind to the T cells. […] In addition, cancer cell killing was quantified. […] In addition to analyzing the target cancer cells, the T cells were also analyzed. […]

[2] = tested on: interferon-gamma (IFN-g) secretion from the T cells; test: ELISA of IFN-g secreted by T cells into conditioned media; conditions: T47D + human T cells
Text: as §1, §2

[3] = tested on: HCT-MUC1* cells (HCT-116 colon cancer cells transduced to express MUC1*); test: Bispecific-mediated T cell / cancer cell clustering (photographs of co-culture); conditions: HCT-MUC1* + human T cells, bispecific 0.05-1,000 ng/mL
Procedure: 20A10 is a humanized anti-MUC1* antibody and OKT3 is an antibody that binds to CD3 that is present on human T cells. […] In FIG. 3A the concentration of the bispecific antibody is 1,000 ng/mL. In FIG. 3B concentration is 333 ng/mL. In FIG. 3C concentration is 111 ng/mL. In FIG. 3D concentration is 37 ng/mL. In FIG. 3E concentration is 12.3 ng/mL. In FIG. 3F concentration is 4.1 ng/ml. In FIG. 3G concentration is 1.3 ng/mL. In FIG. 3H concentration is 0.4 ng/mL. In FIG. 3I concentration is 0.15 ng/mL. In FIG. 3J concentration is 0.05 ng/ml. FIG. 3K is a control well in which both T cells and cancer cells are present, but no bispecific antibody has been added. […]
as §1, with “constructed.” for “constructed. In this example, a first arm of the antibody is the humanized anti-MUC1* antibody 20A10, also known as hu20A10, with a 14616 human framework region; the second arm of the antibody is either the anti-CD3 antibody OKT3 or 12F6, which both bind to the same epitope on human T cells.”

[4] = tested on: T47D breast cancer cells; test: LDH cytotoxicity assay, cancer cells co-cultured with human T cells and bispecific antibody; conditions: T47D + human T cells
Procedure: (§3) 20A10 is a humanized anti-MUC1* antibody and OKT3 is an antibody that binds to CD3 that is present on human T cells. […] In FIG. 1A the concentration of the bispecific antibody is 1,000 ng/mL. In FIG. 1B concentration is 333 ng/mL. In FIG. 1C concentration is 111 ng/mL. In FIG. 1D concentration is 37 ng/ml. In FIG. 1E concentration is 12.3 ng/mL. In FIG. 1F concentration is 4.1 ng/mL. In FIG. 1G concentration is 1.3 ng/ml. In FIG. 1H concentration is 0.4 ng/mL. In FIG. 1I concentration is 0.15 ng/mL. In FIG. 1J concentration is 0.05 ng/ml. […] FIG. 1L is a control well in which only cancer cells are present.
(§4) 20A10 is a humanized anti-MUC1* antibody and 12F6 is an antibody that binds to CD3 that is present on human T cells. […] In FIG. 2A the concentration of the bispecific antibody is 1,000 ng/mL. In FIG. 2B concentration is 333 ng/mL. In FIG. 2C concentration is 111 ng/mL. In FIG. 2D concentration is 37 ng/mL. In FIG. 2E concentration is 12.3 ng/ml. In FIG. 2F concentration is 4.1 ng/ml.

[5] = tested on: T47D breast cancer cells; test: Bispecific-mediated T cell / cancer cell clustering (photographs of co-culture); conditions: T47D + human T cells, bispecific 0.05-1,000 ng/mL
Procedure: as §3, §4

Molecule	bispecific concentration for half-maximal secretion of TNF-α [1]	bispecific concentration for half-maximal secretion of IFN-g [2]	joining together of T cells and MUC1* positive cancer cells (cell clustering) [3]	cancer cell killing (LDH cytotoxicity, A490) [4]	joining together of T cells and MUC1* positive cancer cells (cell clustering) [5]
B1	12.3 ng/mL	12.3 ng/mL	dose-dependent cell clustering		
B2	200 ng/mL	50 ng/mL	dose-dependent cell clustering	potent killer of MUC1* positive tumor cells	dose-dependent cell clustering

Marks after values point to notes of the source that are not given here.
